Measurements taken from PubChem BioAssay AID504845 (National Center for Advancing Translational Sciences (NCATS), 2011).
Where “and” joins values, the source holds several entries; their conditions need not be identical. Identical values can stand only once. Among all 390,000 compounds or so, about 150 (0.038%) were called active. This list was built around the results that the source calls inconclusive (neither active nor inactive); the mix of calls is not that of the screen. The call rests on the fitted dose curve; in most records, active means well fitted inhibition curve with a large enough effect; inconclusive means small, poorly fitted or top-dose-only effect; inactive means no such curve, though single readings can be large or run the other way. Potencies of inconclusive entries are doubtful fits and often do not repeat.

Target: Regulator of G-protein signaling 4 (Homo sapiens) (UniProt P49798)
Experiment: Inhibitors of Regulator of G Protein Signaling (RGS) 4: qHTS; further: nearly all actives have a fitted effect of over 75% in size
Details: Transcreener GDP fluorescence polarization, RGS4-accelerated GTP hydrolysis; series mostly up to 114 µM; activity change, negative = inhibition: at the top concentration
How it was run: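 MLSMR compounds (23 nl, pin-transferred) preincubated 10 min at room temperature with a 500nM (2x) first reagent, then RGS4 at 900nM (2x) plus Transcreener GDP mix added; fluorescence polarization (620/688 nm) read before and after 90 min at 30 °C.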
On the % scale 0 is the no-effect control and ±100 the full control effect; potency means the concentration at half of the fitted maximal effect; tags describe the fitted curve by direction and shape.

UniProt P49798, sequence (P49798 whole entry, looked up): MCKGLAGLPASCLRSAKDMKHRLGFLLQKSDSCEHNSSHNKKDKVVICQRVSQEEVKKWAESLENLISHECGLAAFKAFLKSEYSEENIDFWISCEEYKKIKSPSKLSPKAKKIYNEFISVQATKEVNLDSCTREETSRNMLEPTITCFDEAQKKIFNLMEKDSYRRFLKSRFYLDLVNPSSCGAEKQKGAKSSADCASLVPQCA

Row | Compound | Potency | activity change, negative = inhibition
1 | COC(=O)C1=Nc2ccccc2/C1=C\c1c(O)n(-c2ccc(Br)cc2)c(=O)[nH]c1=O | inconclusive: 50.1 µM [inhibitor, partial curve, poor fit] | –
2 | CSCC[C@H](NC(=O)[C@H](Cc1ccccc1)NC(=O)CNC(=O)CNC(=O)[C@@H](N)Cc1ccc(O)cc1)C(=O)O | inconclusive: 8.44 µM [inhibitor, partial curve, poor fit] | –
3 | Cc1[nH]c(=S)c(C#N)c2c1CCCC2 | inconclusive: 89.1 µM [inhibitor, single point] | –
4 | CCCc1[nH]nc2c1C(c1cc(OC)cc(OC)c1)C(C#N)=C(N)O2 (stereo not given) | inconclusive: 89.1 µM [inhibitor, single point] | –
5 | CN(C)S(=O)(=O)c1cc(NC(=O)COC(=O)Cc2ccccc2)ccc1Cl | inconclusive: 35.5 µM [inhibitor, full curve, poor fit] | –
6 | O=c1c2ccccc2[se]n1-c1ccccc1 | active: 0.67 µM | –
7 | O=C1NC(=S)N(c2ccc(F)cc2)C(=O)/C1=C\c1ccoc1 | inconclusive: 17.8 µM [inhibitor, full curve, poor fit] | –
8 | O=C1NC(=O)N(c2ccc3c(c2)OCO3)C(=O)/C1=C\c1ccsc1 | inconclusive: 17.8 µM [inhibitor, full curve, poor fit] | –
9 | CCOC(=O)c1sc(=NC(=O)c2ccc(C)c(C)c2)n(C)c1C | inconclusive: 39.8 µM [inhibitor, partial curve, poor fit] | –
10 | Cc1ccc(N2C(=O)NC(=O)/C(=C\C=C\c3ccco3)C2=O)cc1 | inconclusive: 28.2 µM [inhibitor, full curve, poor fit] | –
11 | COCCCOc1ccnc(CS(=O)c2nc3ccccc3[nH]2)c1C (stereo not given) | inconclusive: 44.7 µM [inhibitor, partial curve, poor fit] | –
12 | CCCCCc1nc2c(c(=O)c3ccccc3n2C)c(=O)n1C1CCCCCC1 | – | inactive: -16.3%
13 | CCCc1[nH][nH]c(=O)c1C(c1ccc(Cl)cc1)C(C#N)C#N (stereo not given) | inconclusive: 35.5 µM [inhibitor, full curve, poor fit] | –
14 | CC(=O)[C@H]1[C@H](C#N)C[C@H]2[C@@H]3CC=C4C[C@@H](O)CC[C@]4(C)[C@H]3CC[C@@]21C | inconclusive: 106 nM [inhibitor, full curve, poor fit] and inconclusive: 670 nM [inhibitor, partial curve, poor fit] | –
15 | O=C1NC(=O)N(c2ccccc2)C(=O)/C1=C/c1coc2ccc(O)cc2c1=O | inconclusive: 17.8 µM [inhibitor, full curve, poor fit] | –
16 | Cc1cccc(Oc2nc3c(C)cccn3c(=O)c2/C=C(\C#N)c2nc3ccccc3s2)c1 | inconclusive: 112 µM [inhibitor, partial curve, poor fit] | –
17 | COc1cc(C=C2C(=O)NC(=O)NC2=O)ccc1OS(=O)(=O)c1ccccc1[N+](=O)[O-] | inconclusive: 17.8 µM [inhibitor, full curve, poor fit] | –
18 | Cc1ccc(/C=C2\C(=O)NC(=O)N(CCc3ccc(F)cc3)C2=O)s1 | inconclusive: 50.1 µM [inhibitor, partial curve, poor fit] | –
19 | Cc1cccc(N2C(=O)/C(=C/c3ccc(N4CCN(C)CC4)o3)C(=O)NC2=S)c1C | inconclusive: 79.4 µM [inhibitor, single point] | –
20 | COc1ccc2c(c1)NP(=S)(c1ccccc1)N2 (stereo not given) | inconclusive: 17.8 µM [inhibitor, full curve, poor fit] | –
21 | CN1CCc2cc(O)cc3c2[C@H]1Cc1ccc(O)c(O)c1-3 | inconclusive: 0.67 µM [inhibitor, full curve, poor fit] | –
22 | CCN(CC)c1ccc(C=C2C(=O)NC(=S)NC2=O)cc1 | inconclusive: 20 µM [inhibitor, full curve, poor fit] | –
23 | C=CCc1cc(C=C2C(=O)N(C)C(=O)N(C)C2=O)cc(OCC)c1OCc1ccccc1 | inconclusive: 22.4 µM [inhibitor, full curve, poor fit] | –
24 | COc1ccc(CN2C(=O)NC(=O)/C(=C/c3cc(OC)c(OC)c(OC)c3)C2=O)cc1 | inconclusive: 50.1 µM [inhibitor, partial curve, poor fit] | –
25 | c1cncc(C2Nc3cccc4cccc(c34)N2)c1 | inconclusive: 50.1 µM [inhibitor, partial curve, poor fit] | –
26 | O=C(NC1CCCCCC1)c1ccc[nH]c1=S | inconclusive: 17.8 µM [inhibitor, full curve, poor fit] | –
27 | CC(=O)OC1C2(CC3N4C(=O)C5(CO)SSC4(CC31O)C(=O)N5C)OC(C)C(C)(C)C2=O (stereo not given) | inconclusive: 50.1 µM [inhibitor, partial curve, poor fit] | –
28 | COP(=O)(OC)C(NC(=O)/C=C/c1ccccc1)C(Cl)(Cl)Cl (stereo not given) | inconclusive: 44.7 µM [inhibitor, partial curve, poor fit] | –

Row | Compound | Potency | activity change, negative = inhibition
29 | Cc1ccc(/C=C2/C(=O)NC(=O)N(CC3CCCO3)C2=O)s1 (stereo not given) | inconclusive: 35.5 µM [inhibitor, partial curve, poor fit] | –
30 | CCOc1cc(/C=C2\C(=O)NC(=O)N(C)C2=O)cc([N+](=O)[O-])c1O | inconclusive: 28.2 µM [inhibitor, full curve, poor fit] | –
31 | COC(=O)C1=C(c2ccccc2OCc2ccccc2)C[C@@H]2CC[C@H]1N2C(=O)NCc1ccc(C(F)(F)F)cc1 | inconclusive: 50.1 µM [inhibitor, partial curve, poor fit] | –
32 | NCC(CC(=O)O)c1ccc(Cl)cc1 (stereo not given) | inconclusive: 0.106 µM [inhibitor, full curve, poor fit] | –
33 | C=CCN1C(=O)/C(=C/c2ccc(Br)s2)C(=O)NC1=S | inconclusive: 35.5 µM [inhibitor, full curve, poor fit] | –
34 | CCCCCc1cc(O)c2c(c1)OC(C)(C)[C@@H]1CCC(C(=O)O)=C[C@H]21 | inconclusive: 0.106 µM [inhibitor, full curve, poor fit] | –
35 | CS(=O)(=O)N1CCN(C(=N)N[N+](=O)[O-])CC1 | inconclusive: 17.8 µM [inhibitor, full curve, poor fit] | –
36 | CN(C(=O)Cc1ccc(Cl)c(Cl)c1)C(CN1CCCC1)c1cccc(N=C=S)c1 (stereo not given) | – | inactive: 440% [at 56.9 µM]
37 | CC1=NN(c2ccccc2)C(=O)C1/C=C1\C(=O)NC(=O)N(c2cc(C)cc(C)c2)C1=O (stereo not given) | inconclusive: 79.4 µM [inhibitor, single point] | –
38 | C[Se]C[C@H](N)C(=O)O | inconclusive: 26.7 µM [inhibitor, single point] | –
39 | COc1ccc(C(=O)C2CN(C)CC2C(=O)c2ccc(OC)cc2)cc1 (stereo not given) | inconclusive: 79.4 µM [inhibitor, single point] | –
40 | COc1ccc(-n2c(=S)[nH]c3c(sc(=S)n3-c3ccccc3)c2=O)c(OC)c1 | inconclusive: 28.2 µM [inhibitor, full curve, poor fit] | –
41 | Nn1c(CSc2nc3ccccc3o2)nnc1CSc1nc2ccccc2o1 | inconclusive: 50.1 µM [inhibitor, partial curve, poor fit] | –
42 | CN1C(=O)C(=Cc2ccccc2OCc2ccc(Cl)cc2)C(=O)N(C)C1=O | – | inactive: -26.9%
43 | COc1cc(/C=C2\C[C@H]3[C@@H]4CC=C5C[C@@H](N6CCCC6)CC[C@]5(C)[C@H]4CC[C@]3(C)[C@H]2O)cc(OC)c1OC | inconclusive: 89.1 µM [inhibitor, single point] | –
44 | CC[C@@]1(O)C(=O)OCc2c1cc1n(c2=O)-c2cc3ccccc3nc2C1 | inconclusive: 0.0752 µM [inhibitor, full curve, poor fit] | –
45 | CCOc1ccc(NC(=O)CSc2oc(-c3ccccc3)nc2S(=O)(=O)c2ccc(Cl)cc2)cc1 | inconclusive: 79.4 µM [inhibitor, partial curve, poor fit] | –
46 | CN(C)CC(C(=O)Cc1ccccc1)c1ccccc1 (stereo not given) | inconclusive: 44.7 µM [inhibitor, partial curve, poor fit] | –
47 | Cc1cc2c(cc1C)NP(=S)(c1ccccc1)N2 | inconclusive: 25.1 µM [inhibitor, full curve, poor fit] | –
48 | CN1C(=O)C(=Cc2ccccc2Oc2ccc(Cl)c(F)c2)C(=O)N(C)C1=O | inconclusive: 56.2 µM [inhibitor, partial curve, poor fit] | –
49 | O=C1NC(=S)NC(=O)C1C/C=C/c1ccccc1 | inconclusive: 44.7 µM [inhibitor, partial curve, poor fit] | –
50 | CCCCC/C=C\C/C=C\CCCCCCCC(=O)NCCO | inconclusive: 0.106 µM [inhibitor, full curve, poor fit] | –
51 | O=S(=O)(Nc1c(O)ccc2ccccc12)c1ccc(F)cc1 | inconclusive: 50.1 µM [inhibitor, partial curve, poor fit] | –
52 | Cc1cccc(N2C(=O)/C(=C/c3ccc(CN(CCC#N)S(C)(=O)=O)o3)C(=O)NC2=S)c1 | inconclusive: 50.1 µM [inhibitor, partial curve, poor fit] | –
53 | COC(=O)COc1ccc(/C=C2\C(=O)NC(=S)N(c3ccc(C)cc3)C2=O)cc1OC | inconclusive: 31.6 µM [inhibitor, full curve, poor fit] | –
54 | O=c1[nH]c(O)c(/C=C2\C=NN=C2c2ccccc2)c(=O)[nH]1 | inconclusive: 44.7 µM [inhibitor, partial curve, poor fit] | –
55 | C[N+](C)(C)CCOC(=O)CBr | inconclusive: 0.844 µM [inhibitor, partial curve, poor fit] | –
